Measurements reported in publication PMC9911399, “Two distinct binding modes provide the RNA-binding protein RbFox with extraordinary sequence specificity”.
Positions count from the first letter of the chain named. The list shows a part of the results.

T1: RBFOX1 RRM (Homo sapiens, UniProt Q9NWB1 109-208)
T1 sequence: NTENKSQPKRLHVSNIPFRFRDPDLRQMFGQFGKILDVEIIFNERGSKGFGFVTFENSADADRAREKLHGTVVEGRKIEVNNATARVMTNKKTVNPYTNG

B1: CUGGAAC (DNA:RNA)
RNA: GGGAGACCGGAAUUCAGAUUGUCCCUGGAACUUAAAUCCCGUCGUAGCCACCA
DNA 1: CAATCTGAATTCCGGTCTCCC
DNA 2: TGGTGGCTACGACGGGATT
B2: CGUCCAA (DNA:RNA)
RNA: B1 RNA with U26G, G27U, G28C, A29C, C31A
DNA 1: CAATCTGAATTCCGGTCTCCC
DNA 2: TGGTGGCTACGACGGGATT
B3: ACUUAAG (DNA:RNA)
RNA: B1 RNA with C25A, U26C, G27U, G28U, C31G
DNA 1: CAATCTGAATTCCGGTCTCCC
DNA 2: TGGTGGCTACGACGGGATT
B4: GAACCUU (DNA:RNA)
RNA: GGGAGACCGGAAUUCAGAUUGUCCGAACCUUUUAAAUCCCGUCGUAGCCACCA
DNA 1: CAATCTGAATTCCGGTCTCCC
DNA 2: TGGTGGCTACGACGGGATT
B5: UAGGUAA (DNA:RNA)
RNA: B1 RNA with C25U, U26A, A29U, C31A
DNA 1: CAATCTGAATTCCGGTCTCCC
DNA 2: TGGTGGCTACGACGGGATT
B6: AUAUCCG (DNA:RNA)
RNA: B4 RNA with G25A, A26U, C28U, U30C, U31G
DNA 1: CAATCTGAATTCCGGTCTCCC
DNA 2: TGGTGGCTACGACGGGATT
B7: AGCCUGC (DNA:RNA)
RNA: B1 RNA with C25A, U26G, G27C, G28C, A29U, A30G
DNA 1: CAATCTGAATTCCGGTCTCCC
DNA 2: TGGTGGCTACGACGGGATT
B8: UCAGUAG (DNA:RNA)
RNA: B1 RNA with C25U, U26C, G27A, A29U, C31G
DNA 1: CAATCTGAATTCCGGTCTCCC
DNA 2: TGGTGGCTACGACGGGATT
B9: AAUAAUC (DNA:RNA)
RNA: B1 RNA with C25A, U26A, G27U, G28A, A30U
DNA 1: CAATCTGAATTCCGGTCTCCC
DNA 2: TGGTGGCTACGACGGGATT
B10: ACCAACG (DNA:RNA)
RNA: B1 RNA with C25A, U26C, G27C, G28A, A30C, C31G
DNA 1: CAATCTGAATTCCGGTCTCCC
DNA 2: TGGTGGCTACGACGGGATT
B11: CAACCGA (DNA:RNA)
RNA: B4 RNA with G25C, U30G, U31A
DNA 1: CAATCTGAATTCCGGTCTCCC
DNA 2: TGGTGGCTACGACGGGATT
B12: AGACAGC (DNA:RNA)
RNA: B1 RNA with C25A, U26G, G27A, G28C, A30G
DNA 1: CAATCTGAATTCCGGTCTCCC
DNA 2: TGGTGGCTACGACGGGATT
B13: AUAUAGU (DNA:RNA)
RNA: B1 RNA with C25A, G27A, G28U, A30G, C31U
DNA 1: CAATCTGAATTCCGGTCTCCC
DNA 2: TGGTGGCTACGACGGGATT
B14: GGGCUAC (DNA:RNA)
RNA: B1 RNA with C25G, U26G, G28C, A29U
DNA 1: CAATCTGAATTCCGGTCTCCC
DNA 2: TGGTGGCTACGACGGGATT
B15: AUUGACG (DNA:RNA)
RNA: B1 RNA with C25A, G27U, A30C, C31G
DNA 1: CAATCTGAATTCCGGTCTCCC
DNA 2: TGGTGGCTACGACGGGATT
B16: GACACCG (DNA:RNA)
RNA: B4 RNA with A27C, C28A, U30C, U31G
DNA 1: CAATCTGAATTCCGGTCTCCC
DNA 2: TGGTGGCTACGACGGGATT
B17: GUCUUCC (DNA:RNA)
RNA: B1 RNA with C25G, G27C, G28U, A29U, A30C
DNA 1: CAATCTGAATTCCGGTCTCCC
DNA 2: TGGTGGCTACGACGGGATT
B18: ACCUAAG (DNA:RNA)
RNA: B1 RNA with C25A, U26C, G27C, G28U, C31G
DNA 1: CAATCTGAATTCCGGTCTCCC
DNA 2: TGGTGGCTACGACGGGATT
B19: AGUUCAU (DNA:RNA)
RNA: B4 RNA with G25A, A26G, A27U, C28U, U30A
DNA 1: CAATCTGAATTCCGGTCTCCC
DNA 2: TGGTGGCTACGACGGGATT
B20: AUAGGUC (DNA:RNA)
RNA: B1 RNA with C25A, G27A, A29G, A30U
DNA 1: CAATCTGAATTCCGGTCTCCC
DNA 2: TGGTGGCTACGACGGGATT

biological target: T1, RBFOX1 RRM; assay: EMSA; HiTS-Eq, 1 nM pool, 10 min; buffer printed only for the single-RNA assays: 10 mM Tris pH 7.5, 150 mM NaCl, 3.4 mM EDTA, 0.001% NP-40, 30 C; details: tags: His6 N-terminal (pET28a); label: 5' 32P
In short: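 Purified RbFox RRM, wild type or mutant, was incubated for 10 min in 50 µL with 1 nM of a 5′-radiolabelled RNA pool carrying 7 randomized nucleotides, whose flanks were annealed to DNA oligonucleotides, over a series of increasing protein concentrations. Unbound RNA was resolved on 8% native PAGE, cut out, reverse-transcribed, barcoded by PCR and sequenced on an Illumina HiSeq 2500. Relative association constants were derived from changes in read counts for each RNA species versus the control reaction and normalised to the cognate motif.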

**Q.** For B1, which binding signal is on record?
**A.** 0.0213 KA relative to UGCAUGU

**Q.** B2 was tested. Which binding signal did it give?
**A.** 0.00204 KA relative to UGCAUGU

**Q.** Which binding signal does the source give for B3 here?
**A.** 0.00597 KA relative to UGCAUGU

**Q.** How did the binding signal turn out when B4 was run?
**A.** 0.00478 KA relative to UGCAUGU

**Q.** With B5 as the binder, how does the binding signal read?
**A.** 0.0128 KA relative to UGCAUGU

**Q.** B6 was tested. Which binding signal did it give?
**A.** 0.00466 KA relative to UGCAUGU

**Q.** For B7, which binding signal is on record?
**A.** 0.0203 KA relative to UGCAUGU

**Q.** With B8 as the binder, how does the binding signal read?
**A.** 0.00928 KA relative to UGCAUGU

**Q.** B9 was tested. Which binding signal did it give?
**A.** 0.000428 KA relative to UGCAUGU

**Q.** With B10 as the binder, how does the binding signal read?
**A.** 0.00313 KA relative to UGCAUGU

**Q.** For B11, which binding signal is on record?
**A.** 0.00383 KA relative to UGCAUGU

**Q.** With B12 as the binder, how does the binding signal read?
**A.** 0.00652 KA relative to UGCAUGU

**Q.** For B13, which binding signal is on record?
**A.** 0.00253 KA relative to UGCAUGU

**Q.** For B14, which binding signal is on record?
**A.** 0.0173 KA relative to UGCAUGU

**Q.** With B15 as the binder, how does the binding signal read?
**A.** 0.00843 KA relative to UGCAUGU

**Q.** With B16 as the binder, how does the binding signal read?
**A.** 0.00634 KA relative to UGCAUGU

**Q.** For B17, which binding signal is on record?
**A.** 0.0185 KA relative to UGCAUGU

**Q.** B18 was tested. Which binding signal did it give?
**A.** 0.00359 KA relative to UGCAUGU

**Q.** Which binding signal does the source give for B19 here?
**A.** 0.00454 KA relative to UGCAUGU

**Q.** Which binding signal does the source give for B20 here?
**A.** 0.0113 KA relative to UGCAUGU
